# Reference: the antibiotic and cytotoxicity screens of Wong et al. (2023)
# Some of the results follow.
# What was measured:
# HSkMC = human skeletal muscle cells; test: cytotoxicity call (relative viability < 0.9); conditions: 10 µM
# HepG2 = test: cytotoxicity call (relative viability < 0.9); conditions: 10 µM
# S. aureus RN4220 = test: growth inhibition call (relative growth <= 0.2); conditions: 50 µM
Compound,cytotoxicity call (HSkMC),cytotoxicity call (HepG2),growth inhibition call (S. aureus RN4220)
CO[C@H]1CN(C)C(=O)c2cc(NS(C)(=O)=O)ccc2OC[C@@H](C)N(C(=O)C2CCCCC2)C[C@H]1C,inactive,inactive,inactive
O=C(C[C@H]1CC[C@@H]2[C@H](COC[C@@H](O)CN2S(=O)(=O)c2ccccc2)O1)NCCN1CCCC1,inactive,inactive,inactive
C[C@H]1CCCCO[C@H](CN(C)C(=O)Nc2ccc(C(F)(F)F)cc2)[C@@H](C)CN([C@@H](C)CO)C(=O)c2cc(NC(=O)CCC(F)(F)F)ccc2O1,inactive,active,inactive
C[C@H](CO)N1C[C@H](C)[C@@H](CN(C)CC2CCCCC2)OCCCC[C@H](C)Oc2ccc(NC(=O)Nc3ccc4c(c3)OCO4)cc2C1=O,inactive,inactive,inactive
C[C@H]1CN([C@@H](C)CO)C(=O)c2cc(NC(=O)Nc3ccc(C(F)(F)F)cc3)ccc2O[C@H]1CN(C)Cc1ccccc1,active,active,active
C[C@@H]1CCCCO[C@H](CN(C)Cc2ccc3c(c2)OCO3)[C@@H](C)CN([C@@H](C)CO)C(=O)c2cc(NS(=O)(=O)c3ccccc3)ccc2O1,inactive,inactive,inactive
CN1CCN(C(=O)C[C@@H]2CC[C@@H]3[C@H](COC[C@@H](O)CN3C(=O)C3CC3)O2)CC1,inactive,inactive,inactive
Cc1noc(C)c1S(=O)(=O)Nc1ccc2c(c1)CC(=O)N([C@@H](C)CO)C[C@H](C)[C@H](CN(C)C(=O)NC1CCCCC1)O2,inactive,inactive,inactive
C[C@H](CO)N1C[C@H](C)[C@@H](CN(C)Cc2ccc(Oc3ccccc3)cc2)Oc2ccc(NC(=O)Nc3cccc4ccccc34)cc2CC1=O,inactive,active,inactive
Cc1ccc(S(=O)(=O)N(C)C[C@H]2Oc3ccc(NS(=O)(=O)c4cn(C)cn4)cc3CC(=O)N([C@H](C)CO)C[C@@H]2C)cc1,inactive,inactive,inactive
C[C@@H]1CN([C@H](C)CO)C(=O)Cc2cc(NS(=O)(=O)c3ccccc3)ccc2O[C@H]1CN(C)S(=O)(=O)c1cn(C)cn1,inactive,active,inactive
O=C(C[C@H]1C=C[C@@H](NC(=O)Cc2ccccn2)[C@H](CO)O1)NCCc1ccncc1,inactive,inactive,inactive
CNCC1CCOCC1,inactive,inactive,inactive
C[C@@H]1CCCCO[C@H](CN(C)Cc2ccc3c(c2)OCO3)[C@@H](C)CN([C@H](C)CO)C(=O)c2cc(NC(=O)c3ccccc3)ccc2O1,inactive,inactive,inactive
C[C@H]1N(c2cnn(C)c2)C(=O)COC12CCN(S(C)(=O)=O)CC2,inactive,inactive,inactive
C[C@@H]1CN([C@H](C)CO)C(=O)c2ccccc2-c2ccccc2CO[C@H]1CN(C)C(=O)Nc1ccccc1C(F)(F)F,inactive,inactive,inactive
O=C(C[C@H]1CC[C@H]2[C@@H](COC[C@@H](O)CN2C(=O)Nc2ccc(Cl)c(Cl)c2)O1)NCc1ccncc1,inactive,inactive,inactive
C[C@@H]1CCCCO[C@@H](CN(C)Cc2ccc3c(c2)OCO3)[C@H](C)CN([C@@H](C)CO)C(=O)c2cc(NC(=O)Nc3cccc4ccccc34)ccc2O1,inactive,inactive,inactive
CCCCN(CCCC)CCCC.Nc1ncnc2c1ncn2[C@H]1O[C@@H](COP(=O)(O)O)[C@@H](O)[C@@H]1O,inactive,inactive,inactive
COc1ccc(CN(C)C[C@@H]2OCCCC[C@@H](C)Oc3ccc(NS(=O)(=O)c4ccc(Cl)cc4)cc3C(=O)N([C@H](C)CO)C[C@@H]2C)cc1,inactive,inactive,inactive
C[C@@H]1CN([C@H](C)CO)S(=O)(=O)c2ccc(C#C[C@@H](C)O)cc2O[C@H]1CN(C)C(=O)Cc1ccccn1,inactive,inactive,inactive
COc1ccc(NC(=O)Nc2ccc3c(c2)C(=O)N([C@@H](C)CO)C[C@@H](C)[C@@H](CN(C)CC2CCCCC2)OCCCC[C@@H](C)O3)cc1,inactive,active,inactive
Cn1c(-c2ccccc2)c[nH]c1=S,inactive,inactive,inactive
C[C@H]1CN([C@@H](C)CO)C(=O)Cc2cc(NC(=O)Nc3ccccc3)ccc2O[C@@H]1CN(C)Cc1ccc(Cl)c(Cl)c1,active,active,inactive
CCS(=O)(=O)N1CC[C@]2(CC1)CN([C@H](CO)c1[nH]c3cc(ccc3c12)OC)S(=O)(=O)c1ccc(cc1)C,inactive,inactive,inactive
